From the supplement of paper PMC10037445 come the findings set out here.

The full ranking holds about 2,900 compounds; the median of “NF-kB SEAP reporter activity, fold change vs agonist alone” is about 0.99, and the highest 2% start at about 2.6. Some of the results follow.

The test system of assay [1] is RAW-Dual. The experiment in a line: NF-kB SEAP reporter activity, fold change vs agonist alone; higher = enhanced NF-kB activity. Conditions: library stock concentration (final ~1000-fold dilution): 10 mM. In a few lines:
(§1)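 RAW-Dual macrophages (50,000 cells/well in DMEM, 384-well plates) received 50 nL of library stock by pin tool, then a PRR agonist 1 h later, and were kept at 37 °C, 5% CO2. After 20 hours, supernatant was read for IRF by QuantiLuc luminescence and for NF-κB by QuantiBlue absorbance at 620 nm. Reporter activity is fold change over agonist-alone wells. Cytotoxic wells had IncuCyte confluency below 70% of agonist controls in both mask sets.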

The test system of assay [2] is RAW-Dual. The assay is described as follows: NF-kB SEAP reporter activity, fold change vs agonist alone; cytotoxicity flag (confluency mask): not cytotoxic; higher = enhanced NF-kB activity. An outline of the steps: as §1
Assay [3] concerns RAW-Dual. The experiment in a line: NF-kB SEAP reporter activity, fold change vs agonist alone; cytotoxicity flag (confluency mask): cytotoxic (confluency <70% of control); higher = enhanced NF-kB activity. An outline of the steps:
as §1

Setting [4] is: cytotoxicity flag (confluency mask): not cytotoxic, agonist: Imiquimod (TLR7) […].
Setting [5] is: cytotoxicity flag (confluency mask): not cytotoxic, agonist: MPLA (TLR4) […].
The mark [6] stands for this setting: agonist: ODN 1826 (TLR9) 0.5 ug/mL.
The mark [7] stands for this setting: agonist: Pam2CSK4 (TLR2/6) 0.1 ug/mL.
[8] abbreviates: agonist: Pam3CSK4 (TLR2/1) 0.1 ug/mL.

For the compound `CC(C)c1ccc2c(c1O)CCC1C3=C(CCC21C)C(=O)OC3` (stereo not given), the “NF-kB SEAP reporter activity” value in the assay with RAW-Dual [1] (setting [4]) turned out to be 0.849; in the assay on RAW-Dual [1] (setting [5]), 1.2.

With `CC(C)c1ccc2c(c1O)CCC1C3=C(CCC21C)C(=O)OC3` (stereo not given) (library stock concentration (final ~1000-fold dilution): 10 mM), the “NF-kB SEAP reporter activity” value in the assay on RAW-Dual [2] (agonist: LPS (TLR4) 0.1 ug/mL) is 1.02; in the assay on RAW-Dual [2] (setting [6]), 0.678; with RAW-Dual [2] (setting [7]) it was 0.929; with RAW-Dual [2] (setting [8]) it was 0.968.

In the case of `COc1ccc2c(c1O)-c1c(OC)c(OC)cc3c1C(C2)N(C)CC3` (stereo not given), the “NF-kB SEAP reporter activity” value in the assay on RAW-Dual [1] (setting [4]) was 0.969; in the assay with RAW-Dual [1] (setting [5]), 1.03.

On to `COc1ccc2c(c1O)-c1c(OC)c(OC)cc3c1C(C2)N(C)CC3` (stereo not given) (library stock concentration (final ~1000-fold dilution): 10 mM), for which the “NF-kB SEAP reporter activity” value is 1.21 in the assay with RAW-Dual [2] (agonist: LPS (TLR4) 0.1 ug/mL), 0.945 with RAW-Dual [2] (setting [6]), 1.11 in the assay with RAW-Dual [2] (setting [7]) and 1.05 with RAW-Dual [2] (setting [8]).

Turning to `CCNC1(c2cccs2)CCCCC1=O.Cl` (stereo not given), the “NF-kB SEAP reporter activity” value with RAW-Dual [1] (setting [5]) came to 1.03.

In the case of `CCNC1(c2cccs2)CCCCC1=O.Cl` (stereo not given) (library stock concentration (final ~1000-fold dilution): 10 mM), the “NF-kB SEAP reporter activity” value with RAW-Dual [2] (agonist: LPS (TLR4) 0.1 ug/mL) was determined as 0.97; in the assay with RAW-Dual [2] (setting [6]) it was 0.957; in the assay on RAW-Dual [2] (setting [7]), 1; with RAW-Dual [2] (setting [8]), 0.754.

Consider `COc1ccc(C=O)cc1O` (library stock concentration (final ~1000-fold dilution): 10 mM), for which the “NF-kB SEAP reporter activity” value is 1.43 in the assay with RAW-Dual [2] (agonist: LPS (TLR4) 0.1 ug/mL), 0.878 in the assay on RAW-Dual [2] (setting [6]), 1.24 in the assay with RAW-Dual [2] (setting [7]) and 0.929 with RAW-Dual [2] (setting [8]).

Regarding `COc1ccc(C=O)cc1O`, the “NF-kB SEAP reporter activity” value in the assay with RAW-Dual [1] (setting [5]) is 1.02.

For the compound `COc1ccc2c(c1)/C(=C/c1cnc[nH]1)C(=O)N2` (library stock concentration (final ~1000-fold dilution): 10 mM), the “NF-kB SEAP reporter activity” value in the assay with RAW-Dual [2] (agonist: LPS (TLR4) 0.1 ug/mL) came to 1.06; in the assay with RAW-Dual [2] (setting [6]), 1.65; in the assay on RAW-Dual [2] (setting [7]), 0.608; in the assay with RAW-Dual [2] (setting [8]), 0.725.

On to `COc1ccc2c(c1)/C(=C/c1cnc[nH]1)C(=O)N2`, for which the “NF-kB SEAP reporter activity” value with RAW-Dual [1] (setting [4]) came out at 1.37; in the assay on RAW-Dual [1] (setting [5]), 1.86.

Take `CC(=O)OC1CC2CCC3C(CCC4(C)C3CC([N+]3(C)CCCCC3)C4OC(C)=O)C2(C)CC1[N+]1(C)CCCCC1` (stereo not given) (library stock concentration (final ~1000-fold dilution): 10 mM): the “NF-kB SEAP reporter activity” value with RAW-Dual [2] (agonist: LPS (TLR4) 0.1 ug/mL) turned out to be 1.19; with RAW-Dual [2] (setting [6]), 1.04; in the assay on RAW-Dual [2] (setting [7]) it was 0.973; in the assay with RAW-Dual [2] (setting [8]), 1.04.

Consider `CC(=O)OC1CC2CCC3C(CCC4(C)C3CC([N+]3(C)CCCCC3)C4OC(C)=O)C2(C)CC1[N+]1(C)CCCCC1` (stereo not given), for which the “NF-kB SEAP reporter activity” value in the assay with RAW-Dual [1] (setting [4]) came to 0.933; in the assay on RAW-Dual [1] (setting [5]), 0.963.

For `COc1ccc2c(c1)[nH]c1c(C)nccc12`, the “NF-kB SEAP reporter activity” value amounted to 0.982 with RAW-Dual [1] (setting [4]) and 1.06 in the assay with RAW-Dual [1] (setting [5]).

In the case of `COc1ccc2c(c1)[nH]c1c(C)nccc12` (library stock concentration (final ~1000-fold dilution): 10 mM), the “NF-kB SEAP reporter activity” value with RAW-Dual [2] (agonist: LPS (TLR4) 0.1 ug/mL) amounted to 0.78; with RAW-Dual [2] (setting [6]) it was 0.197; in the assay on RAW-Dual [2] (setting [7]), 0.843; in the assay on RAW-Dual [2] (setting [8]), 0.739.

Take `CN(C)NC(=O)CCC(=O)O`: the “NF-kB SEAP reporter activity” value in the assay with RAW-Dual [1] (setting [5]) amounted to 0.991.

For the compound `CN(C)NC(=O)CCC(=O)O` (library stock concentration (final ~1000-fold dilution): 10 mM), the “NF-kB SEAP reporter activity” value stood at 1.2 in the assay with RAW-Dual [2] (agonist: LPS (TLR4) 0.1 ug/mL), 0.955 in the assay on RAW-Dual [2] (setting [6]), 0.776 with RAW-Dual [2] (setting [7]) and 0.801 with RAW-Dual [2] (setting [8]).

Turning to `COC12CC(COC(=O)c3cncc(Br)c3)CN(C)C1Cc1cn(C)c3cccc2c13` (stereo not given) (library stock concentration (final ~1000-fold dilution): 10 mM), the “NF-kB SEAP reporter activity” value with RAW-Dual [2] (agonist: LPS (TLR4) 0.1 ug/mL) amounted to 1.06; in the assay on RAW-Dual [2] (setting [6]), 0.759; in the assay with RAW-Dual [2] (setting [7]) it was 0.858; with RAW-Dual [2] (setting [8]) it was 0.824.

With `COC12CC(COC(=O)c3cncc(Br)c3)CN(C)C1Cc1cn(C)c3cccc2c13` (stereo not given), the “NF-kB SEAP reporter activity” value in the assay with RAW-Dual [1] (setting [5]) is 1.14.

For `CCC1=CC2CN3CCc4c([nH]c5ccccc45)C(C(=O)OC)(C2)C13.O=C(O)C(O)C(O)C(=O)O` (stereo not given), the “NF-kB SEAP reporter activity” value came out at 0.871 in the assay on RAW-Dual [1] (setting [4]) and 1.12 in the assay on RAW-Dual [1] (setting [5]).

As to `CCC1=CC2CN3CCc4c([nH]c5ccccc45)C(C(=O)OC)(C2)C13.O=C(O)C(O)C(O)C(=O)O` (stereo not given) (library stock concentration (final ~1000-fold dilution): 10 mM), the “NF-kB SEAP reporter activity” value with RAW-Dual [2] (agonist: LPS (TLR4) 0.1 ug/mL) stood at 0.978; in the assay with RAW-Dual [2] (setting [6]), 0.805; in the assay on RAW-Dual [2] (setting [7]), 0.917; in the assay with RAW-Dual [2] (setting [8]), 1.05.

Regarding `CC(C)N(CCC(C(N)=O)(c1ccccc1)c1ccccn1)C(C)C` (stereo not given), in the assay with RAW-Dual [1] (setting [5]), the “NF-kB SEAP reporter activity” value amounted to 1.05.

As for `CC(C)N(CCC(C(N)=O)(c1ccccc1)c1ccccn1)C(C)C` (stereo not given) (library stock concentration (final ~1000-fold dilution): 10 mM), the “NF-kB SEAP reporter activity” value in the assay on RAW-Dual [2] (agonist: LPS (TLR4) 0.1 ug/mL) came out at 0.964; in the assay with RAW-Dual [2] (setting [6]), 0.921; in the assay with RAW-Dual [2] (setting [7]) it was 1.11; in the assay on RAW-Dual [2] (setting [8]), 0.893.

On to `O=[N+]([O-])/C=C/c1ccc2c(c1)OCO2` (library stock concentration (final ~1000-fold dilution): 10 mM), for which the “NF-kB SEAP reporter activity” value was 0.403 in the assay on RAW-Dual [3] (agonist: LPS (TLR4) 0.1 ug/mL), 0.3 in the assay with RAW-Dual [3] (setting [6]), 0.11 in the assay on RAW-Dual [3] (setting [7]) and 0.216 in the assay on RAW-Dual [3] (setting [8]).

With `O=[N+]([O-])/C=C/c1ccc2c(c1)OCO2`, the “NF-kB SEAP reporter activity” value with RAW-Dual [1] (cytotoxicity flag (confluency mask): cytotoxic (confluency <70% of control), agonist: MPLA (TLR4) […]) is 0.26.

Regarding `COc1ccc(CN2CCNCC2)c(OC)c1OC.Cl.Cl` (library stock concentration (final ~1000-fold dilution): 10 mM), the “NF-kB SEAP reporter activity” value is 1.14 in the assay with RAW-Dual [2] (agonist: LPS (TLR4) 0.1 ug/mL), 0.998 in the assay on RAW-Dual [2] (setting [6]), 0.997 in the assay on RAW-Dual [2] (setting [7]) and 0.98 with RAW-Dual [2] (setting [8]).

Take `COc1ccc(CN2CCNCC2)c(OC)c1OC.Cl.Cl`: the “NF-kB SEAP reporter activity” value with RAW-Dual [1] (setting [4]) was 0.88; in the assay with RAW-Dual [1] (setting [5]), 0.968.

`C=C1CC2C(CCC3(C)C(=O)CCC23)C2(C)C=CC(=O)C=C12` (stereo not given): the “NF-kB SEAP reporter activity” value in the assay with RAW-Dual [1] (setting [4]) was 1.64; with RAW-Dual [1] (setting [5]) it was 1.62.

On to `C=C1CC2C(CCC3(C)C(=O)CCC23)C2(C)C=CC(=O)C=C12` (stereo not given) (library stock concentration (final ~1000-fold dilution): 10 mM), for which the “NF-kB SEAP reporter activity” value with RAW-Dual [2] (agonist: LPS (TLR4) 0.1 ug/mL) is 0.812; in the assay with RAW-Dual [2] (setting [6]), 1.56; in the assay on RAW-Dual [2] (setting [7]), 0.681; in the assay with RAW-Dual [2] (setting [8]) it was 0.969.

As for `CCCCCCC[n+]1ccc(-c2cc[n+](CCCCCCC)cc2)cc1`, the “NF-kB SEAP reporter activity” value with RAW-Dual [1] (setting [4]) was 1.32; with RAW-Dual [1] (setting [5]), 2.11.
